Experimental data reported in the RNAGym collection of RNA variant scans (doi:10.7554/elife.90254).
Read counts are not given, so values of variants with three or more changes are uncertain.

B1: LINE1-mini (parent)
chain: GGCAGAGCUCAACACAGCGUGGCAAAGUGGCUGUGGCUAGACUGCC

Variants of: B1
Assay: self-cleavage, relative activity (ratio to wild type); higher = more cleavage; in vitro, sequencing; the parent is a self-cleaving ribozyme

Variant | self-cleavage
A4G A11U C31G U32G | 0.01
A4G C8U A12U G22U | 0.78
A4U C23A C45A | 0.14
A4C U20C G21U | 0.02
A4G G19U A39G | 0.08
A4U C15U G33U | 0.05
A4G G33U A39G | 0.48
A4G A24U A39C | 0.05
A4G G19A G21C | 0.27
A4G G7U A25C G36A | 0.1
A4G G5A C10A | 0.07
A4U A12U G17C G40C | 0.08
A4G A11C U32G A41U C42U | 0.03
A4U A11C G30C | 0
A4G U32A G33A U43A | 0.03
A4G G7A G27C | 0.05
A4G U20G A26U G36U | 0.05
A4G G7U G27U U38C G40U | 0.16
A4G U9A A14C | 0.24
A4U C42U G44C | 0.11
A4C U20G C23A | 0.05
A4G A11U A12G A14G G36A | 0.01
A4U C8A G21A | 0.65
A4U C13U G22C G30U C45G | 0.04

Variant | self-cleavage
A4G A26U C31G C37G | 0.03
A4G G27C U28C | 0.18
A4U C23U U28G C31U A39U C46G | 0.04
A4G A11U C18G U28G | 0.03
A4G A6G G29U | 0.03
A4U A6G G30C A39G | 0.31
A4C G27U U32A U43A C45G | 0.02
A4G C8A C13G G33C | 0.29
A4G A14C G30C | 0.03
A4U C13A G22A A24U A26G G33A C45A | 0.07
A4G G5U G22A G29C C37U | 0.05
A4U A11U C31G C37A | 0.01
A4U C23U A26U | 0.22
A4G A11G C23G G27U G30U | 0.23
A4C U9A A16U | 0.06
A4U G5A U9A A14U C15G C45U | 0.06
A4G C18G U20G | 0.05
A4U C10A G17A A26C | 0.01
A4G A6G G7A G17A C18G G40A | 0.15
A4G G7A G17C A41G C46A | 0.59
A4U C10A C42A G44A | 0.05
A4U A12G U32G C42U | 0.02
A4U C10G C18A G27C U34A | 0.03
A4G A6U C8U G19C C45G | 0.04

Variant | self-cleavage
A4G C13A U20C G30C G35U | 0.42
A4U A12G U20C | 0
A4G C15U G21A U32C | 0.03
A4U A16C G27A | 0.03
A4U C10A G19A U20G G21U G27U | 0.01
A4G C10A G21A C46A | 0.02
A4G A12G C18U | 0.02
A4C G22U A24U | 0.1
A4U C10U A14G C15G C37A A39G G40C | 0.01
A4C U28C C31A C37A | 0.09
A4G C8G C15U U34A C37U | 0.04
A4U C13U G27C U43C C45U | 0.12
A4U C13G G27C | 0.03
A4U C18G C23U G29U U43A | 0.05
A4G G29A U43G G44A | 0.03
A4U A12G C18U U28A U32A | 0.06
A4G A16G G17A C18A | 0
A4G U20A C37G A41C | 0.03
A4G U9C G22C C37U | 0.47
A4G G7A G29A C42G | 0.03
A4U A24G G44U | 0.08
A4G A6U U38C A39G | 0.13
A4G G5U C10A A24C C42A U43C | 0.08
A4G G7C G29C | 0.04

Variant | self-cleavage
A4U C15A G29A G30U | 0.06
A4U C8G C15G A16U | 0.03
A4G C8A A16U | 0.02
A4G C23G A24U A26U | 0.16
A4G G27U C37A | 0.57
A4G C18A A26U G40A | 0.14
A4G G7C A12U C45A | 0.06
A4U A11U U20G | 0
A4G G27A G29A U43A C46G | 0.06
A4G A24U G27C | 1.77
A4U A16C G21C G27C | 0.95
A4U C10A G29A G30U A41C | 0.03
A4G G17A A39U | 0.03
A4G A25U G35U | 0.32
A4U C13A G22A | 0.12
A4G U20G C31A U38G | 0
A4G A6G A26G G35A G44C C46A | 0.02
A4U A6G G7C C15G U38G | 0.01
A4G A11U C13A A16C | 0.02
A4U A14G G30U U43C | 0.04
A4G G29U U32C | 0.13
A4U C23U A39U | 0.03
A4G C10A A25U A41G | 0.01
A4C G33A G35U C37G | 0.05

Variant | self-cleavage
A4U A12C C46G | 0.07
A4G G7C C8G C10U U28G C42G | 0.01
A4G A16C C31A G36U A41G | 0.1
A4C U9G A16U C37A | 0.01
A4C G27A A41C | 0.11
A4G C18G A26G A41U G44C C46A | 0.05
A4U G5A U9A C18G A26U G29A G36U | 0.39
A4U A6G C10G G36C A41C | 0.01
A4U C10U G27C G30U | 0.04
A4G G17U G35A G40U C42U | 0.05
A4G A6G G19C G21U U34C | 0
A4G C13U C15G G33U | 0.01
A4U C8U C10A C18U G27A | 0.02
A4U G5A A25G | 0.24
A4G G7A C10G G35A | 0.03
A4U A16G C18G G22C G30A C37A | 0.02
A4G C8G C13A G22U G27A C37G A41U | 0.07
A4G C15U G35C | 0.04
A4G C10A C18A | 0.02
A4G C10U A26U C46G | 0.17
A4G G35U A41G | 0.59
A4U C18U G40A U43G | 0.04
A4U A12G G17C C18U G21A C45G | 0
A4U C18A U34A | 0.01

Variant | self-cleavage
A4U C31A G35A | 0.09
A4G A11G G17C | 0.03
A4G A12U A26C | 0.13
A4G U9G A16G A26G | 0.04
A4G C8A U9G | 0.14
A4G A6C G17A C31G | 0.01
A4U A25G U28C | 0
A4U A25G G27C U32C | 0.09
A4G G22U U28A | 0.35
A4U G5A G21C | 0.27
A4C U32G C45U | 0.06
A4G C18U U28A G30A | 0.92
A4G G7U U28G | 0.03
A4U A24U C42G | 0.08
A4G G5U C23G G29C A39G | 0.02
A4G G7U C8A | 0.2
A4G A14G U34C G40C | 0
A4G G7A G17U G22A C23G A26G | 0.25
A4G C15G G30C C46G | 0.18
A4G C18A A24G A39U | 0.05
A4U C23U U34G C37U C46U | 0.01
A4G C23A A25G U28C G33U U38A C45U | 0.04
A4G A11G U28A | 0.01
A4U C23G G36U | 0.08

Variant | self-cleavage
A4U C23G G36A | 0.01
A4G A26G C42A U43G C46A | 0.04
A4U C8G C10U A25U C46G | 0.02
A4G G7C C23U C31G | 0.15
A4G U32C U38A | 0.09
A4G G19U U32G | 0.28
A4G C37U G44U | 0.03
A4G C18U U28C G35C G40C | 0.04
A4G C31A G35U C45U C46U | 0.08
A4C U9C G27U U38G C45U | 0.01
A4U C10A U28C G40U | 0.06
A4G G5U G7C C8A G22U U32A | 0.13
A4G G17U G36U | 0.15
A4G A6U C15G G17C A26G C31A | 0.18
A4G C10A A16G G29U | 0
A4G G22C C23A C45A | 0.25
A4G C8G C15U | 0.04
A4U C15U U20G G36A C37U | 0.07
A4G U9C A24C G29C | 0.02
A4G A14C G19U C23A U34A | 0.02
A4U A14C A24G | 0.03
A4G G7A C37U | 0.36
A4U C8A A14C | 0.07
